Measurements as given in PubChem BioAssay AID686978 (National Center for Advancing Translational Sciences (NCATS), 2013).
Among all 420,000 compounds or so, about 64,000 (15%) were called active. Inconclusive results, whose numbers are uncertain, are shown with a selection of clear calls. Calls come from the whole dose curve; as a rule, active = well fitted inhibition curve with a large enough effect; inconclusive = small, poorly fitted or top-dose-only effect; inactive = flat fitted curve, though single readings scatter. Potencies of inconclusive entries are left out as doubtful fits.

Test: qHTS for Inhibitors of human tyrosyl-DNA phosphodiesterase 1 (TDP1): qHTS in cells in absence of CPT; note: nearly all actives have a fitted effect of over 55% in size
Details: DT40 Tdp1-/- hTDP1 cells, no CPT, ATP luminescence, 48 h; activity change, negative = growth inhibition: at 46.2 µM (top of the series) unless noted
Procedure, shortened: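 Seeded 400 DT40-hTDP1 cells/well (vehicle DMSO, no 20 nM CPT); pinned compounds; ≥48 hr at 37 °C; CellTiter-Glo luminescence as viability measure.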
% is set by controls: 0 for no effect and ±100 for the full control effect; potency is the fitted concentration of half-maximal effect; tags give direction and shape of the fitted curve.

SMILES	Potency	activity change, negative = growth inhibition
CC(Oc1ccc(Cl)cc1Cl)C(=O)Nc1ccc(N2CCN(C)CC2)cc1 (stereo not given)	active: 18.4 µM	–
Cc1cnc(SCC2CCCO2)nc1C1CCCN(Cc2nc(-c3ccccc3)cs2)C1 (stereo not given)	inconclusive [inhibitor, single point]	–
COc1cccc(CCNC(=O)COc2cccc3c2OC(C)(C)C3)c1	–	inactive: -28%
Clc1ccc2c(N3CCCC3)ccnc2c1	inconclusive [inhibitor, partial curve]	–
COC(=O)C1=C(C)NC(C)=C(C(=O)OC)C1C(=O)OC(C)C(=O)c1ccccc1 (stereo not given)	inconclusive [inhibitor, partial curve]	–
O=C(NCc1ccc(Cl)cc1)C(=O)NCC(c1cccs1)S(=O)(=O)c1cccs1 (stereo not given)	inconclusive [inhibitor, single point]	–
O=[N+]([O-])c1ccc(Cl)c(/C=N/n2c(C3CCCCC3)n[nH]c2=S)c1	inconclusive [inhibitor, single point]	–
COc1ccc(CCN(C)C(=S)Nc2ccc(SC(F)F)cc2)cc1OC	inconclusive [inhibitor, single point]	–
Cc1ccc(S(=O)(=O)c2ccc([N+](=O)[O-])o2)cc1	active: 0.184 µM	–
COc1ccc(S(=O)(=O)N2CCCCC2)cc1NC(=O)CNc1ccc(F)cc1C	–	inactive: -27.6%
COc1cc(OC)c(OC)cc1CNCC1COc2ccccc2O1 (stereo not given)	inconclusive [inhibitor, single point]	–
N#Cc1c(-c2cccnc2)c2c([nH]c1=O)-c1ccccc1OC2	inconclusive [inhibitor, single point]	–
CN(Cc1ccccc1)C(=O)c1ccc(NC(=O)Cc2ccc(NC(=O)C3CCN(S(=O)(=O)c4cccc([N+](=O)[O-])c4)CC3)cc2)cc1	inconclusive [inhibitor, partial curve]	–
COc1ccccc1N(CC(=O)NCc1ccccc1)S(=O)(=O)c1cccs1	inconclusive [inhibitor, partial curve, poor fit]	–
Cc1nc(C)c(C(=O)Nc2cccc(C)c2C)o1	–	inactive: -15.9%
Cc1ccc(-c2nc3cccnc3s2)cc1NC(=O)C1c2ccccc2Oc2ccccc21	inconclusive [inhibitor, single point]	–
O=C(O)c1cc2ncc(CCO)cn2n1	–	inactive: -7.71%
O=C(COC(=O)CC12CC3CC(CC(Br)(C3)C1)C2)NC(=O)NCc1ccco1	–	inactive: 2.51%
Cc1cc(C)nc(SCC(=O)N/N=C/c2cccnc2)n1	–	inactive: 4.33%
COc1c(F)c(F)c(C(=O)Nc2ccc3oc(-c4ccncc4)nc3c2)c(F)c1F	–	inactive: -18.1%
COc1ccc(CCNC(=O)c2cc(S(=O)(=O)N3CCCCC3)ccc2Cl)cc1	active: 16.4 µM	–
Cc1cc2c(cc1C)C(=O)C(=O)N2	inconclusive [inhibitor, partial curve, poor fit]	–
COc1cccc(S(=O)(=O)NCc2ccc(C(=O)N3CCN(c4ccccc4)CC3)cc2)c1	active: 16.4 µM	–
Cc1cc(CN(C)C(=O)c2cc(COc3ccc(F)cc3Cl)on2)n[nH]1	inconclusive [inhibitor, single point]	–
Cc1oc(C)c2c(=O)cc(-c3ccc4c(c3)OCO4)cc(OC(=O)c3cccc(Br)c3)c12	inconclusive [inhibitor, single point]	–

SMILES	Potency	activity change, negative = growth inhibition
NNC(=O)c1ccc(Cn2cc(Br)cn2)cc1	–	inactive: -2.87%
Cc1ccc(NC(=S)NC2CC3CCCC(C2)N3Cc2cccs2)cc1 (stereo not given)	active: 17.8 µM	–
CCOC(=O)[C@]12CCC=C1N(Cc1ccc3c(c1)OCO3)C(=O)[C@H](CC(=O)NCc1ccc(OC)c(OC)c1)C2	inconclusive [inhibitor, single point]	–
CCOC(=O)N1CCN(c2nc3ccc(C)cc3n3cnnc23)CC1	–	inactive: -17.1%
Cc1nn(-c2ccccc2)c(=S)n1-c1ccccc1	active: 13 µM	–
COc1ccc2c(c1)C(=O)CC2	–	inactive: -1.88%
O=C(/C=C/c1ccccc1Cl)Nc1cccnc1	–	inactive: -24.4%
CCOC(=O)C1=C(C)OC(N)=C(C#N)C1c1cccs1 (stereo not given)	inconclusive [inhibitor, single point]	–
Cc1ccc(C)c(SCC(=O)Nc2cccc(S(=O)(=O)NC3=NCCCCC3)c2)c1	inconclusive [inhibitor, single point]	–
COCc1cc(C(C)=O)ccc1OC	–	inconclusive: 0.596% [inhibitor]
O=C(O)CSc1nc(-c2cccs2)cc(C(F)(F)F)n1	–	inactive: -19%
COc1ccc2c(c1OC)C(=O)N1C2SC(C)(C)[C@H]1C(=O)NC1CC1 (stereo not given in full)	–	inactive: 1.97%
Cc1ccc(CNC(=O)c2coc(=O)c3ccccc23)o1	inconclusive [inhibitor, single point]	–
COc1ccc(-n2ncc(C(=O)NCCc3ccsc3)c2C2CCN(C(=O)OC(C)(C)C)CC2)cc1	inconclusive [inhibitor, single point]	–
Cc1nc(C)c(-c2ccc(SCC(=O)Nc3cccc(Cl)c3)nn2)s1	inconclusive [inhibitor, single point]	–
COc1ccccc1/C=C1\SC(=S)N(CCC(=O)Nc2cc(C)on2)C1=O	inconclusive [inhibitor, full curve, poor fit]	–
Cn1c2ccccc2c(=O)c2ccc(C#Cc3ccccn3)cc21	inconclusive [inhibitor, single point]	–
Cc1ccccc1N1CN(Cc2ccco2)CNC1=S	–	inactive: -16.2%
O=C1CSc2ccccc2N1	–	inactive: -18.4%
CS(=O)(=O)N(CC(=O)Nc1ccccc1-c1ccccc1)c1ccc(F)cc1	inconclusive [inhibitor, single point]	–
O=c1c2cnn(-c3ccccc3)c2ncn1Cc1ccccc1	inconclusive [inhibitor, single point]	–
Nc1nc(N)c(Br)c(Nc2ccc(Cl)c(Cl)c2)n1	–	inconclusive: -31.5% [inhibitor]
C=CCc1cc(Cl)ccc1OC(=O)Nc1cccc(Cl)c1	inconclusive [inhibitor, single point]	–
CC(=O)CC1N(S(=O)(=O)c2ccc(C)cc2)c2ccccc2N1S(=O)(=O)c1ccc(C)cc1	–	inactive: 7.12%
COc1ccc(CN2CCCC(Cn3cc(C(=O)N4CCCC4)nn3)C2)c(O)c1 (stereo not given)	–	inactive: -5.75%

SMILES	Potency	activity change, negative = growth inhibition
CCCCc1nn2c(=O)cc(COC(=O)c3ccc(NC(=O)c4ccccc4C)cc3)nc2s1	active: 14.6 µM	–
CC1=NN(C(=O)c2csc(C(C)C)c2)C(O)(C(F)(F)F)C1 (stereo not given)	active: 1.03 µM	–
COC(=O)c1cc(-c2cccs2)nc2ccccc12	–	inactive: -3.83%
CCOC(=O)c1cnc(-n2nc(C)cc2C)nc1N1CC(C)OC(C)C1 (stereo not given)	active: 20.6 µM	–
Cc1cccc(C)c1OC(=O)CN(c1ccc(Cl)cc1)S(C)(=O)=O	–	inconclusive: -30.1% [inhibitor]
O=c1[nH]c(CN2CCN(S(=O)(=O)c3ccc(Cl)cc3)CC2)nc2cc(Cl)ccc12	inconclusive [inhibitor, single point]	–
Cc1ccc(Cl)cc1N1CCN(C(=O)C2(S(=O)(=O)c3ccc(Cl)cc3)CC2)CC1	inconclusive [inhibitor, single point]	–
COc1cc2c(cc1OC)C(COc1ccccc1OC)N(C(=O)COc1ccc(Cl)cc1)CC2 (stereo not given)	active: 23.1 µM	–
Cc1ccc(N2C(=O)C3C(C2=O)N2CCCN2C3c2ccccc2)cc1C (stereo not given)	–	inactive: -6.66%
COc1ccc(OC)c(CNC(=O)Cc2ccc(NC(=O)N3CCSc4ncccc43)cc2)c1	inconclusive [inhibitor, single point]	–
COc1ccc([C@H]2N[C@]3(CCCN(Cc4ccccc4)C3=O)[C@H]3C(=O)N(Cc4ccccc4)C(=O)[C@@H]23)cc1	inconclusive [inhibitor, partial curve]	–
O=C(Nc1ccc(Br)c(C(F)(F)F)c1)c1ccccc1	active: 23.1 µM	–
Clc1ccc(/C=N/Nc2ncnc3ccccc23)cc1Cl	active: 20.6 µM	–
COCCCNC(=O)C[C@@H]1C[C@@]2(C(=O)OC)CCCCC=C2N(Cc2ccc(Cl)cc2Cl)C1=O	active: 16.4 µM	–
CCOC(=O)c1c(NC(=O)CSc2nc3ccccc3o2)sc(C)c1C	inconclusive [inhibitor, single point]	–
O=C(/C=C/c1ccc(O)c(O)c1)c1ccc(S(=O)(=O)N2CCCCCC2)cc1	active: 5.17 µM	–
O=C(O)CSCC(=O)N(c1ccccc1)c1ccccc1	–	inactive: -21.1%
O=C(c1ccco1)N1CCN(C(=O)c2ccc(COc3ccc4c(c3)CCC4)o2)CC1	inconclusive [inhibitor, single point]	–
CCOC(=O)CSc1[nH]c(=O)cc(C)c1C#N	–	inactive: -10.3%
Cc1cc(C)n(CCc2nc3c4ccccc4nc(N4CCN(c5ccccc5)CC4)n3n2)n1	active: 3.26 µM	–
CCc1nc2ccccc2n1CC(=O)Nc1cc(C)on1	inconclusive [inhibitor, partial curve, poor fit]	–
Cc1cc(=O)n2c3c(c4c(cc13)c(CN(C)C)cc(=O)n4C)OC2	active: 6.51 µM	–
Cc1ccc(C(=O)CCS(=O)(=O)c2ccc(Cl)cc2)cc1	active: 2.91 µM	–
Cc1cc(C)c(C(=O)/C=C/c2cccs2)c(=O)[nH]1	inconclusive [inhibitor, single point]	–
CCN(CC)C(=O)c1cccc(-c2csc(C(O)c3ccc(F)cc3)n2)c1 (stereo not given)	inconclusive [inhibitor, single point]	–
